These results are taken from the supplement of paper PMC3334620.

Over roughly 33,000 sequences, “E-score (-0.5 to 0.5)” has its median near -0.016; the highest 2% begin near 0.31. This is one part of the list.

The test addresses Cst6 (UniProt P40535). Put plainly: PBM E-score (8-mer binding enrichment) (E-score (-0.5 to 0.5)); higher = stronger / more preferred TF binding; most listed sequences are background and not binding sites. Conditions: protein concentration: 200 nM; construct: GST-DNA-binding domain. As to the method: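 Universal 'all 10-mer' protein binding microarrays (Agilent AMADID 015681) probed with GST-tagged S. cerevisiae TFs (full-length or DBD) made by in vitro transcription/translation (PURExpress), about 100-200 nM. Bound TF was detected with fluorescent anti-GST. Each ungapped 8-mer (which stands for itself and its reverse complement) is scored by the PBM enrichment score (E-score), a modified Wilcoxon-Mann-Whitney statistic from -0.5 to +0.5, computed with the Universal PBM Analysis Suite. Scale: above 0.35 generally sequence-specific binding.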
For AAACAACC, the “PBM E-score” value is 0.0437. The result for GTTAGAAA reads 0.0476; that for CCGCCAAC, -0.256; that for GTGAGAAA, 0.133. Take CCACGGGG: the “PBM E-score” value is -0.283.

For AGAGAGGA, the “PBM E-score” value is -0.32. Turning to ATTTCTGC, the “PBM E-score” value was found to be 0.22. The result for CTTAAGCA reads -0.227. The result for GCCGTACA reads 0.237; that for CCCGCATA, 0.162. In the case of ACGCCTAG it was -0.0363; in that of AAACGGTT, -0.0412. Take CGGGTCAC: the “PBM E-score” value is -0.131.

On to CGTATCAG, for which the “PBM E-score” value worked out at 0.0591.

As to AGAATCGA, the “PBM E-score” value is -0.0254. Take CACGAGAC: the “PBM E-score” value was -0.0226.

In the case of CCGAACTA, the “PBM E-score” value worked out at 0.00284.

Take ATTCAGAG: the “PBM E-score” value turned out to be 0.156.

In the case of GTCGGTCA, the “PBM E-score” value is -0.202. The result for AGACTGAA reads 0.0537; that for ACCTCCAT, -0.185. CCCGTTCG: the “PBM E-score” value is -0.0146. In the case of AACTTGGT it was 0.0656; in that of AAAGTCCG, -0.225. In the case of TAGATTCA it was -0.123. The result for CCCGGACA reads -0.124; that for ATCCAGCC, -0.321; that for CTTATGTA, 0.186.

On to TAACGTAA, for which the “PBM E-score” value is 0.452. The result for ACACGCGA reads 0.0369; that for CGGACAGA, 0.0405; that for GTGCGTCA, 0.432. In the case of CAACTAGC it was -0.0318; in that of CTTTTAAC, 0.0717.

For GTGCCGTA, the “PBM E-score” value is 0.389.

For GGTACGCA, the “PBM E-score” value is -0.0788. In the case of AGCGTCTG it was -0.194. The result for ACCCTTAG reads -0.112; that for TATTCAGA, 0.237. In the case of ATCGTTCC it was -0.0931. On to AAACGTAA, for which the “PBM E-score” value was determined as 0.365. In the case of ATATCACA it was 0.169; in that of AGATGGTA, -0.0215. In the case of CACGGGTA it was 0.00477. In the case of CAAGGGAC it was -0.24; in that of CTGCTAAA, -0.0752. GCGGGACA: the “PBM E-score” value was -0.106.

Take AGTTACAT: the “PBM E-score” value turned out to be 0.0765. For the sequence CGTGGCGC, the “PBM E-score” value amounted to 0.096. In the case of AAAGTCAC it was 0.098; in that of CCACATAG, -0.244. On to TCACTACA, for which the “PBM E-score” value turned out to be 0.24. In the case of CCCCCTAA it was -0.28; in that of AAAAAGCA, 0.124; in that of GAGTTCAC, -0.0863. The result for TACCAATA reads -0.0757.

Take AAAGGATG: the “PBM E-score” value is -0.0221. In the case of ACCGTGCT it was -0.149; in that of GGACCGCC, -0.288.

In the case of CGCTCGAC, the “PBM E-score” value is -0.204. The result for TCGGATCA reads 0.13; that for CTCCTGAC, -0.0342; that for CAGGTATG, 0.121. In the case of AGTATTGG it was -0.078; in that of CAGTAAGG, 0.0136. Turning to CTTAGCGC, the “PBM E-score” value was determined as 0.11. The result for AAACGAAT reads 0.15.

As to AGAACGAC, the “PBM E-score” value is -0.0889.

Consider AGTCATAG, for which the “PBM E-score” value was 0.0637. In the case of TAAGAGAA it was 0.246. For TGAACACA, the “PBM E-score” value turned out to be 0.06. In the case of GATGGCTA it was -0.0452. The result for CGAACAAC reads 0.193; that for ATAATACA, 0.284; that for CGTCAGCC, 0.267. The result for GATGAACC reads -0.123. Turning to ATAGTCCG, the “PBM E-score” value was -0.0347. In the case of GATGGGCC it was -0.218; in that of CAGCCAAG, -0.24.

Regarding AACTGGGG, the “PBM E-score” value is -0.264.

Take ATGTAACG: the “PBM E-score” value stood at 0.235. In the case of AAAGACAC it was 0.171; in that of ATACTACC, -0.0771; in that of CCCTTTCG, -0.215. In the case of AACTTCAC it was 0.0265. In the case of AGGCTAGC it was -0.263; in that of AGTTCTAG, -0.241.

Regarding GTTAGAGA, the “PBM E-score” value was -0.116. In the case of AATTCCCA it was 0.0197; in that of CTCTACTC, -0.115. In the case of AAACTAGA it was -0.0317; in that of AGAACTTA, 0.0848.

Regarding ACCTAGGG, the “PBM E-score” value was -0.159. For CTTTCGAA, the “PBM E-score” value was -0.0432.
